Laboratory results as given in the supplement of paper PMC11417369.
The other results are listed elsewhere or left out.

Test system: PfHDP1 homeodomain (GST-tagged)
Assay: gcPBM binding intensity (ln(normalized median fluorescence intensity)); higher = stronger DNA binding
Procedure, shortened: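 After 1 h on an Agilent 4 × 180k array of primer-extended double-stranded 36-bp intergenic genomic probes and negative controls, bound GST-tagged P. falciparum DNA-binding domains were detected with Alexa488 anti-GST antibody and scanned at 488 nm. The domains had been expressed in E. coli, and binding took place in 1× PBS with 1% milk, 0.2 mg/ml BSA, 0.5% salmon testes DNA and 0.03% Triton X-100. Binding intensity is the highest Masliner-normalised natural-log median intensity across replicate spots of either probe orientation.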

| Sequence | gcPBM binding intensity (ln) |
| --- | --- |
| AATCATCTCATAAAAATTAATTAGTGTATGTCTTTT [TGCATGCA_negctrl_site416] | 6.19 |
| AAAACAATATACTGTAGTACTGATGATATATATATA [XGTACX_site7798] | 8.67 |
| TCTTAAATATATAAATTGAAAAATATAAAAGTAATA [CACACA_negctrl_site1558] | 6.17 |
| ACAATATAGATTAAAAGTACAAATAGTAAATTATAT [XGTACX_site3165] | 6.28 |
| ATAAAAAAAAATAGCACACATAAATATATTATATAT [CACACA_site767] | 7.08 |
| TCTTGTTAATATATTAAATATATCTATAAATATATA [XGTACX_negctrl_site486] | 6.55 |
| TATATACATACATATACACACATATATATATATATA [CACACA_site401] | 9.33 |
| TCATATTCCAAGTGTACACATAAATCCCTAATAACA [CACACA_site5167] | 7.19 |
| GTATAAAATATTGATTGTACTTTATTCATTTTTTTT [XGTACX_site2520] | 5.92 |
| TCATTGTTTAATATGTGTCCTCAAAATTTGTTATAT [XGTACX_site677] | 6.39 |
| ACAAATGGAACTCCTACAAAAAATTTCCATAATATT [XGTACX_negctrl_site132] | 6.03 |
| TAAACCTATTATACGGGTACTTATTTGATTCTTATA [XGTACX_site5292] | 6.15 |
| AAAAATAAAACAATTACACACATAACTTTATTTTTA [CACACA_site6563] | 6.69 |
| AAAAGCTTAAAAAATTGTACATAAATGAATAAATAT [XGTACX_site5201] | 6.21 |
| GAACTCATTTAATATTGTACATTCTGATATTTTTTA [XGTACX_site5995] | 6.47 |
| ACCACCATATAACATACATGCATCTTTTTTCCCTTC [TGCATGCA_site583] | 7.51 |
| AGACGTAATAATTGTTGTACATAAAAAAATAAGAAA [XGTACX_site7594] | 6.75 |
| AACAATTGTTAAAGGTGTACCATATGTATATAAGAA [XGTACX_site5723] | 7.39 |
| AAAAAATGTTAAAAAAGTACTTTCTTTATTTAATAA [XGTACX_site2908] | 6.02 |
| ATGATATTATAAAAAAGTACATATGTATATAATTAT [XGTACX_site7652] | 7.12 |
| AATATATGATAATTTTTTTTTTTTTTTTTTAAATAT [CACACA_negctrl_site452] | 5.87 |
| ATTTAATACAAATACACACACAAATATGTACCTATA [CACACA_site7718] | 7.02 |

| Sequence | gcPBM binding intensity (ln) |
| --- | --- |
| ACAATTCATTAGAATTGTACAAAAGGATGAAGCGAA [XGTACX_site5242] | 7.22 |
| ATTTTTTTTTTTTAATTTGATATTTGCGTTTATATA [CACACA_negctrl_site1305] | 6.36 |
| AATGCACAGCTCTTAGGCAAAAGTGGGTATTTACAC [GTGCAC_negctrl_site579] | 8.63 |
| TGTATAAAAAACTAATGTACAAATGACAAGATATCT [XGTACX_site4600] | 6.64 |
| CATTTAGTTCATACTATGCACACTACGTATATTTTT [CACACA_site2694] | 8.79 |
| TCCTTGTTTGGTTTTTTTTTTTCTTCTTTTTTTTTT [CACACA_negctrl_site1355] | 6.28 |
| TTAAATGTTATATATTGTACATATAATATATGTATT [XGTACX_site1492] | 6.11 |
| ACACATACACATTAGGTGCACATAATTCAATATTAC [GTGCAC_site9862] | 10.6 |
| ATATATATATAAAGGAGTACATACATTAAAAAAAAA [XGTACX_site1095] | 8.3 |
| TCTTATTTAAAAATAGCACACATTATATATATATAT [CACACA_site8916] | 9.04 |
| AAAAAACATACATACACACACATAAATATATATATT [CACACA_site2699] | 6.85 |
| ATATATACCTATAACACACACATATTTATATTTATA [CACACA_site7257] | 6.74 |
| CATATAATATATCAATGTACATATATATTTTATAAA [XGTACX_site5901] | 6.59 |
| TTAGCAACTATTACTACACACATTTTTATATAATTT [CACACA_site1372] | 6.84 |
| TAATAAAAAAAGTGCACACACATAATATATATATAT [CACACA_site3340] | 9.23 |
| TATAAATCAATATGTACACACATATACATGTTGAAT [CACACA_site7460] | 6.36 |
| ATTATATACATATATATTGTATATACTATACATATG [XGTACX_negctrl_site545] | 6.56 |
| ATTGTCAAAACACGCACACACATATACATAATAACA [CACACA_site1742] | 7.54 |
| TCTTATAACAAAAAAAAATAAAAAATAAAACTATAT [GTGCAC_negctrl_site11] | 6.43 |
| CATATAAATAGACACACACACACATATAAATAAATA [CACACA_site7156] | 6.79 |
| AAATAATATTGAAAAGTGCATATTTTTGTTGATATA | 7.4 |
| AAATTTAAATAATGTGCGCATCTTAATATATATAAG [GTGCAC_site9890] | 7.49 |
